Measured values reported in patent US8324345B2, “HLA-binding peptide, precursor thereof, DNA fragment and recombinant vector encoding the same” (priority 2006, dated 2012).
At least one peptide structure holds a part that was inferred or is arguable (an end, a ring closure or a residue). Some compounds share one wording; it may come from a single statement. No end group written: not given here.

Experiments:
[1] = test system: HLA-A24 molecule (the product of HLA-A*2402 gene); assay: Binding experiment of the peptides to an HLA-A2402 molecule (C1R-A24 cells, flow cytometry); parameters: species or system human
[2] = test system: human HLA-A type molecule; assay: Binding experiments, summary statement for HLA-A type molecules; conditions: summary of the binding experiments
Procedure: The peptides' binding affinity to an HLA-A24 molecule (the product of HLA-A*2402 gene) was measured by using C1R-A24 cells that express the HLA-A*2402 gene (produced by and provided with permission of Professor Masafumi Takiguchi, Kumamoto University).

| Sequence | Binding experiment data (−log Kd value) [1] | binding affinity to a human HLA-A type molecule (in words) [2] |
| --- | --- | --- |
| ELPETLETL [compound 9] | 7.01 | – |
| ALSELPETL [compound 12] | 5.505 | experimentally confirmed to have binding affinity |
| GFLNEDHWF [compound 20] | 6.7592 | experimentally confirmed to have binding affinity |
| ELPETLETL [compound 40] | – | experimentally confirmed to have binding affinity |
| PMSTYGWNL [compound 22] | 7.624 | experimentally confirmed to have binding affinity |
| YMPSVIEKM [compound 15] | 7.169 | experimentally confirmed to have binding affinity |
| HVLGRLITV [compound 45] | – | experimentally confirmed to have binding affinity |
| IVLEHGSCV [compound 27] | – | experimentally confirmed to have binding affinity |
| QILEENVEV [compound 50] | – | experimentally confirmed to have binding affinity |
| LALLAAFKV [compound 43] | – | experimentally confirmed to have binding affinity |
| ALVAFLRFL [compound 21] | 5.681 | – |
| AYNHALSEL [compound 23] | 7.679 | experimentally confirmed to have binding affinity |
| GLNPTAIFL [compound 8] | 6.392 | experimentally confirmed to have binding affinity |
| FQPESPSKL [compound 36] | – | experimentally confirmed to have binding affinity |
| TLYAVATTF [compound 11] | 7.585 | experimentally confirmed to have binding affinity |
| HWPKSHTLW [compound 7] | 8.659 | experimentally confirmed to have binding affinity |
| ILIRTGLLV [compound 33] | – | experimentally confirmed to have binding affinity |
| AFSGVSWTM [compound 2] | 8.193 | experimentally confirmed to have binding affinity |
| NLVRLQSGV [compound 30] | – | experimentally confirmed to have binding affinity |
| WYAQIQPHW [compound 1] | 8.645 | experimentally confirmed to have binding affinity |
| ALHQVFGAI [compound 19] | 6.055 | experimentally confirmed to have binding affinity |
| PFPQSNAPI [compound 5] | 8.221 | experimentally confirmed to have binding affinity |
| IQKETLVTF [compound 18] | 7.2378 | experimentally confirmed to have binding affinity |
| KLMKITAEW [compound 16] | 7.207 | experimentally confirmed to have binding affinity |
| DWIPLALTI [compound 25] | 8.003 | experimentally confirmed to have binding affinity |
| SLRPQPTEL [compound 34] | – | experimentally confirmed to have binding affinity |
| LLFKTENGV [compound 28] | – | experimentally confirmed to have binding affinity |
| SVIEKMEAL [compound 48] | – | experimentally confirmed to have binding affinity |
| PLNEAIMAV [compound 29] | – | experimentally confirmed to have binding affinity |
